{"source": "a collection of fitness landscapes (doi:10.1126/science.1257360)", "parents": {"B1": {"name": "PhoQ; a variant is named by its letters at X, in order, P23837 (parent)", "chain": "MKKLLRLFFPLSLRVRFLLATAAVVLVLSLAYGMVALIGYSVSFDKTTFRLLRGESNLFYTLAKWENNKLHVELPENIDKQSPTMTLIYDENGQLLWAQRDVPWLMKMIQPDWLKSNGFHEIEADVNDTSLLLSGDHSIQQQLQEVREDDDDAEMTHSVAVNVYPATSRMPKLTIVVVDTIPVELKSSYMVWSWFIYVLSANLLLVIPLLWVAAWWSLRPIEALAKEVRELEEHNRELLNPATTRELTSLVRNLNRLLKSERERYDKYRTTLTDLTHSLKTPLXXLQXXLRSLRSEKMSVSDAEPVMLEQISRISQQIGYYLHRASMRGGTLLSRELHPVAPLLDNLTSALNKVYQRKGVNISLDISPEISFVGEQNDFVEVMGNVLDNACKYCLEFVEISARQTDEHLYIVVEDDGPGIPLSKREVIFDRGQRVDTLRPGQGVGLAVAREITEQYEGKIVAGESMLGGARMEVIFGRQHSAPKDE"}}, "note": "This is one part of the list.", "data": [{"variants_of": "B1", "assay": "enrichment ratio after two sorts for PhoP signalling (ratio (wild type AVST 3.29)); higher = more functional", "details": "with PhoP (E. coli)", "values": [{"variant": "IHKA", "enrichment ratio": "≤ 0.25"}, {"variant": "TLSM", "enrichment ratio": 25.5}, {"variant": "KGCC", "enrichment ratio": "≤ 0.25"}, {"variant": "TMSG", "enrichment ratio": 24.1}, {"variant": "PGYA", "enrichment ratio": "≤ 0.25"}, {"variant": "SINA", "enrichment ratio": 3.62}, {"variant": "YDGL", "enrichment ratio": "≤ 0.25"}, {"variant": "GKVD", "enrichment ratio": "≤ 0.25"}, {"variant": "ILAN", "enrichment ratio": "≤ 0.25"}, {"variant": "SEWM", "enrichment ratio": 3.99}, {"variant": "EGVV", "enrichment ratio": "≤ 0.25"}, {"variant": "TQNG", "enrichment ratio": "≤ 0.25"}, {"variant": "FQCF", "enrichment ratio": "≤ 0.25"}, {"variant": "YFAC", "enrichment ratio": "≤ 0.25"}, {"variant": "QFCN", "enrichment ratio": "≤ 0.25"}, {"variant": "YYSM", "enrichment ratio": "≤ 0.25"}, {"variant": "GRFV", "enrichment ratio": "≤ 0.25"}, {"variant": "RLRA", "enrichment ratio": "≤ 0.25"}, {"variant": "IIKR", "enrichment ratio": "≤ 0.25"}, {"variant": "IAMH", "enrichment ratio": "≤ 0.25"}, {"variant": "MLKR", "enrichment ratio": "≤ 0.25"}, {"variant": "WHSC", "enrichment ratio": "≤ 0.25"}, {"variant": "KHGM", "enrichment ratio": "≤ 0.25"}, {"variant": "AMGE", "enrichment ratio": 9.88}, {"variant": "VMCQ", "enrichment ratio": "≤ 0.25"}, {"variant": "YMFL", "enrichment ratio": "≤ 0.25"}, {"variant": "VPII", "enrichment ratio": "≤ 0.25"}, {"variant": "MSPL", "enrichment ratio": "≤ 0.25"}, {"variant": "PEPE", "enrichment ratio": "≤ 0.25"}, {"variant": "LKQQ", "enrichment ratio": "≤ 0.25"}, {"variant": "MPNS", "enrichment ratio": "≤ 0.25"}, {"variant": "WSVE", "enrichment ratio": "≤ 0.25"}, {"variant": "KYEC", "enrichment ratio": "≤ 0.25"}, {"variant": "KCWG", "enrichment ratio": "≤ 0.25"}, {"variant": "RKRI", "enrichment ratio": "≤ 0.25"}, {"variant": "LCTW", "enrichment ratio": "≤ 0.25"}, {"variant": "PFDR", "enrichment ratio": "≤ 0.25"}, {"variant": "DYLN", "enrichment ratio": "≤ 0.25"}, {"variant": "PLPW", "enrichment ratio": 0.375}, {"variant": "VDIE", "enrichment ratio": "≤ 0.25"}, {"variant": "LTKK", "enrichment ratio": "≤ 0.25"}, {"variant": "TWPY", "enrichment ratio": "≤ 0.25"}, {"variant": "VQKS", "enrichment ratio": "≤ 0.25"}, {"variant": "QDWG", "enrichment ratio": "≤ 0.25"}, {"variant": "WTYI", "enrichment ratio": "≤ 0.25"}, {"variant": "SQVY", "enrichment ratio": 14.2}, {"variant": "LMGT", "enrichment ratio": "≤ 0.25"}, {"variant": "PHTI", "enrichment ratio": "≤ 0.25"}, {"variant": "SQSM", "enrichment ratio": 15.9}, {"variant": "NWSC", "enrichment ratio": "≤ 0.25"}, {"variant": "PRDS", "enrichment ratio": "≤ 0.25"}, {"variant": "EGPK", "enrichment ratio": "≤ 0.25"}, {"variant": "NSFG", "enrichment ratio": "≤ 0.25"}, {"variant": "NSVR", "enrichment ratio": "≤ 0.25"}, {"variant": "WAYC", "enrichment ratio": "≤ 0.25"}, {"variant": "TCDI", "enrichment ratio": "≤ 0.25"}, {"variant": "KENF", "enrichment ratio": "≤ 0.25"}, {"variant": "MQEW", "enrichment ratio": "≤ 0.25"}, {"variant": "GMPY", "enrichment ratio": "≤ 0.25"}, {"variant": "KPHK", "enrichment ratio": "≤ 0.25"}, {"variant": "KDVC", "enrichment ratio": "≤ 0.25"}, {"variant": "RGFK", "enrichment ratio": "≤ 0.25"}, {"variant": "MPAR", "enrichment ratio": "≤ 0.25"}, {"variant": "YKKW", "enrichment ratio": "≤ 0.25"}, {"variant": "DLLI", "enrichment ratio": "≤ 0.25"}, {"variant": "VINP", "enrichment ratio": "≤ 0.25"}, {"variant": "TNRR", "enrichment ratio": "≤ 0.25"}, {"variant": "NQGN", "enrichment ratio": "≤ 0.25"}, {"variant": "GCVY", "enrichment ratio": "≤ 0.25"}, {"variant": "NCQG", "enrichment ratio": "≤ 0.25"}, {"variant": "MNKF", "enrichment ratio": "≤ 0.25"}, {"variant": "PINK", "enrichment ratio": "≤ 0.25"}, {"variant": "HCFG", "enrichment ratio": "≤ 0.25"}, {"variant": "ESRT", "enrichment ratio": "≤ 0.25"}, {"variant": "VKTG", "enrichment ratio": "≤ 0.25"}, {"variant": "MGIC", "enrichment ratio": "≤ 0.25"}, {"variant": "YPND", "enrichment ratio": "≤ 0.25"}, {"variant": "TYNH", "enrichment ratio": "≤ 0.25"}, {"variant": "EVIK", "enrichment ratio": "≤ 0.25"}, {"variant": "RLKF", "enrichment ratio": "≤ 0.25"}, {"variant": "VYDS", "enrichment ratio": "≤ 0.25"}, {"variant": "HSAG", "enrichment ratio": "≤ 0.25"}, {"variant": "KFSR", "enrichment ratio": "≤ 0.25"}, {"variant": "HIYP", "enrichment ratio": "≤ 0.25"}, {"variant": "SITK", "enrichment ratio": 6.98}, {"variant": "PQSG", "enrichment ratio": "≤ 0.25"}, {"variant": "PGDF", "enrichment ratio": "≤ 0.25"}, {"variant": "SWYK", "enrichment ratio": "≤ 0.25"}, {"variant": "LNWC", "enrichment ratio": "≤ 0.25"}, {"variant": "EIRY", "enrichment ratio": "≤ 0.25"}, {"variant": "TLSK", "enrichment ratio": 6.09}, {"variant": "NSTT", "enrichment ratio": "≤ 0.25"}, {"variant": "TLIW", "enrichment ratio": "≤ 0.25"}, {"variant": "MISG", "enrichment ratio": 1.79}, {"variant": "LNMH", "enrichment ratio": "≤ 0.25"}, {"variant": "ESKG", "enrichment ratio": "≤ 0.25"}, {"variant": "IRDH", "enrichment ratio": "≤ 0.25"}, {"variant": "LLWL", "enrichment ratio": "≤ 0.25"}, {"variant": "RDWM", "enrichment ratio": "≤ 0.25"}, {"variant": "FYRC", "enrichment ratio": "≤ 0.25"}, {"variant": "ITCI", "enrichment ratio": "≤ 0.25"}, {"variant": "RSWY", "enrichment ratio": "≤ 0.25"}, {"variant": "GACT", "enrichment ratio": "≤ 0.25"}, {"variant": "NAGA", "enrichment ratio": "≤ 0.25"}, {"variant": "KHDI", "enrichment ratio": "≤ 0.25"}, {"variant": "LGMP", "enrichment ratio": "≤ 0.25"}, {"variant": "HWSD", "enrichment ratio": "≤ 0.25"}, {"variant": "LHQE", "enrichment ratio": "≤ 0.25"}, {"variant": "HAPH", "enrichment ratio": "≤ 0.25"}, {"variant": "SRYT", "enrichment ratio": "≤ 0.25"}, {"variant": "HEPA", "enrichment ratio": "≤ 0.25"}, {"variant": "NAYR", "enrichment ratio": "≤ 0.25"}, {"variant": "FTPW", "enrichment ratio": "≤ 0.25"}, {"variant": "REGT", "enrichment ratio": "≤ 0.25"}, {"variant": "LQIF", "enrichment ratio": "≤ 0.25"}, {"variant": "TMVS", "enrichment ratio": 1.41}, {"variant": "EIHN", "enrichment ratio": "≤ 0.25"}, {"variant": "DWIG", "enrichment ratio": "≤ 0.25"}, {"variant": "QETK", "enrichment ratio": "≤ 0.25"}, {"variant": "YPTA", "enrichment ratio": "≤ 0.25"}, {"variant": "RKAS", "enrichment ratio": "≤ 0.25"}, {"variant": "SMRG", "enrichment ratio": "≤ 0.25"}, {"variant": "DSEQ", "enrichment ratio": "≤ 0.25"}, {"variant": "ANVF", "enrichment ratio": 6.52}, {"variant": "TCLT", "enrichment ratio": 4.19}, {"variant": "WYAC", "enrichment ratio": "≤ 0.25"}, {"variant": "FAWS", "enrichment ratio": "≤ 0.25"}, {"variant": "FFFY", "enrichment ratio": "≤ 0.25"}, {"variant": "DTLM", "enrichment ratio": "≤ 0.25"}, {"variant": "AYIP", "enrichment ratio": "≤ 0.25"}, {"variant": "HIYG", "enrichment ratio": "≤ 0.25"}, {"variant": "QDLK", "enrichment ratio": "≤ 0.25"}, {"variant": "ITSR", "enrichment ratio": "≤ 0.25"}, {"variant": "ANGL", "enrichment ratio": 4.99}, {"variant": "FQPK", "enrichment ratio": "≤ 0.25"}, {"variant": "HFFC", "enrichment ratio": "≤ 0.25"}, {"variant": "LLKT", "enrichment ratio": "≤ 0.25"}, {"variant": "SGEK", "enrichment ratio": "≤ 0.25"}, {"variant": "GHRM", "enrichment ratio": "≤ 0.25"}, {"variant": "LDKL", "enrichment ratio": "≤ 0.25"}, {"variant": "YYCR", "enrichment ratio": "≤ 0.25"}, {"variant": "KAVN", "enrichment ratio": "≤ 0.25"}, {"variant": "TNKS", "enrichment ratio": "≤ 0.25"}, {"variant": "YCFH", "enrichment ratio": "≤ 0.25"}, {"variant": "TWVN", "enrichment ratio": "≤ 0.25"}, {"variant": "WEAG", "enrichment ratio": "≤ 0.25"}, {"variant": "FASM", "enrichment ratio": "≤ 0.25"}, {"variant": "FSVN", "enrichment ratio": "≤ 0.25"}, {"variant": "KWHL", "enrichment ratio": "≤ 0.25"}, {"variant": "EHCH", "enrichment ratio": "≤ 0.25"}, {"variant": "WFHH", "enrichment ratio": "≤ 0.25"}, {"variant": "FSNL", "enrichment ratio": "≤ 0.25"}, {"variant": "GRKP", "enrichment ratio": "≤ 0.25"}, {"variant": "SRTW", "enrichment ratio": "≤ 0.25"}, {"variant": "SYKY", "enrichment ratio": "≤ 0.25"}, {"variant": "QNVC", "enrichment ratio": "≤ 0.25"}, {"variant": "MSCY", "enrichment ratio": 1.59}, {"variant": "DHVK", "enrichment ratio": "≤ 0.25"}, {"variant": "HRKY", "enrichment ratio": "≤ 0.25"}, {"variant": "SACF", "enrichment ratio": 8.75}, {"variant": "IEFP", "enrichment ratio": "≤ 0.25"}, {"variant": "WLWQ", "enrichment ratio": "≤ 0.25"}, {"variant": "IRYT", "enrichment ratio": "≤ 0.25"}, {"variant": "DWRD", "enrichment ratio": "≤ 0.25"}, {"variant": "EMQV", "enrichment ratio": "≤ 0.25"}, {"variant": "QKGS", "enrichment ratio": "≤ 0.25"}, {"variant": "RHMS", "enrichment ratio": "≤ 0.25"}, {"variant": "WVSY", "enrichment ratio": "≤ 0.25"}, {"variant": "ARYQ", "enrichment ratio": "≤ 0.25"}, {"variant": "QQGM", "enrichment ratio": "≤ 0.25"}, {"variant": "KYCV", "enrichment ratio": "≤ 0.25"}, {"variant": "FAFI", "enrichment ratio": "≤ 0.25"}, {"variant": "GKWV", "enrichment ratio": "≤ 0.25"}, {"variant": "NKDK", "enrichment ratio": "≤ 0.25"}, {"variant": "GYMM", "enrichment ratio": 0.253}, {"variant": "KCGM", "enrichment ratio": "≤ 0.25"}, {"variant": "PVLT", "enrichment ratio": "≤ 0.25"}, {"variant": "LFAF", "enrichment ratio": "≤ 0.25"}, {"variant": "VYTV", "enrichment ratio": "≤ 0.25"}, {"variant": "AFQW", "enrichment ratio": "≤ 0.25"}, {"variant": "NVRI", "enrichment ratio": "≤ 0.25"}, {"variant": "QREI", "enrichment ratio": "≤ 0.25"}, {"variant": "LKQN", "enrichment ratio": "≤ 0.25"}, {"variant": "MQNW", "enrichment ratio": "≤ 0.25"}, {"variant": "EMFK", "enrichment ratio": "≤ 0.25"}, {"variant": "GWEN", "enrichment ratio": "≤ 0.25"}, {"variant": "YHWD", "enrichment ratio": "≤ 0.25"}, {"variant": "VKDT", "enrichment ratio": "≤ 0.25"}, {"variant": "TWYE", "enrichment ratio": "≤ 0.25"}, {"variant": "VRCR", "enrichment ratio": "≤ 0.25"}, {"variant": "PKFM", "enrichment ratio": "≤ 0.25"}, {"variant": "YYPA", "enrichment ratio": "≤ 0.25"}, {"variant": "SDFL", "enrichment ratio": "≤ 0.25"}, {"variant": "WNNV", "enrichment ratio": "≤ 0.25"}, {"variant": "PSST", "enrichment ratio": "≤ 0.25"}]}]}
